Read counts are not given, so values of variants with three or more changes are uncertain.

First the molecules themselves.
B1: LINE1-full (parent)
chain: UACGUAGGUGGUUUUCCCCUGAUAGUGCUAAGGGGGCCUGGAAGUUUGGACUGGGCAGAGCUCAACACAGCGUGGCAAAGUGGCUGUGGCUAGACUGCCUCUCUGGAUUCCUCGUCACUCAGCAGGGCAUCUCUGAGAGAAAUGCC

The variants in this data set derive from B1. Nature of the data set: self-cleavage, relative activity (ratio to wild type); higher = more cleavage; in vitro, sequencing; the parent is a self-cleaving ribozyme.
In the case of U20A A64U A79G, the self-cleavage is 0.18.

Take C19U C76U C90A U108C: the self-cleavage came out at 0.02.

In the case of U20A A43G U115A, the self-cleavage was found to be 0.21.

On to U15G A57G A78G, for which the self-cleavage worked out at 1.07.

On to U20C A78G C133U, for which the self-cleavage came out at 1.44.

Consider C19U A31G G32A, for which the self-cleavage stood at 0.07.

As for U20C A67U G88A, the self-cleavage is 0.01.

Turning to C18A U104C U130C, the self-cleavage came to 0.81.

With C19U U26A U39C, the self-cleavage was determined as 0.9.

C19U G55U A77G U104C A142G: the self-cleavage was determined as 1.07.

On to U20A U85C U96C A107G, for which the self-cleavage came to 1.84.

On to C16A U29C U96A A140G, for which the self-cleavage came to 0.16.

As to U20A U39A A43G G88A A107G U115C, the self-cleavage came out at 0.11.

Regarding U20A G41U U52C A64U, the self-cleavage is 0.3.

For U20A A78U A129G A140G, the self-cleavage was 2.83.

Regarding U20A G48U A141G, the self-cleavage amounted to 1.65.

For the variant U20C A65G A78G, the self-cleavage is 0.

Take C17A U39C U85C U119C A124U A129U A142G: the self-cleavage was 0.

For the variant U20A A117U A121G A138G, the self-cleavage was determined as 1.27.

Regarding U20A U134C A138U, the self-cleavage turned out to be 1.5.

In the case of C19U A22G A138G C146A, the self-cleavage came out at 0.37.

For the variant C19U C38U A136G, the self-cleavage stood at 0.7.

For the variant U20A U85C G89A U112C U143C, the self-cleavage came to 0.1.

In the case of U20C A64U C66A U102A, the self-cleavage turned out to be 0.05.

In the case of C18A A43C A65G A140U A142G, the self-cleavage came to 0.

Turning to C19U U85A U134A, the self-cleavage was found to be 0.14.

In the case of C19U U29C A69U A79G, the self-cleavage is 0.05.

With C19A U96G U115A, the self-cleavage was determined as 0.

For U20C G54A A67G, the self-cleavage is 0.

Take U20A U62C A65G A107G: the self-cleavage is 0.

For the variant U20C A42U A64U, the self-cleavage was determined as 0.37.

On to C19U U39A G97A, for which the self-cleavage was determined as 0.2.

For U20A G88A U109C A129G A136G, the self-cleavage is 0.1.

With C17A A50G U100C, the self-cleavage was 1.72.

With C19U U23A A140G, the self-cleavage amounted to 0.55.

As to U20A U39A U104C, the self-cleavage came to 1.29.

For the variant C18U U62C G88A G105A, the self-cleavage was 0.03.

Regarding C19U A92C U96A, the self-cleavage turned out to be 0.09.

As for U20A G48U C56U, the self-cleavage was 0.12.

U15C U87C U119C: the self-cleavage came to 0.61.

Regarding U20A A22G U62G, the self-cleavage was 0.14.

Take C18U G40C C131U: the self-cleavage is 0.86.

Take U20A A31C U45C: the self-cleavage amounted to 2.

For the variant C19U A22U A69G, the self-cleavage amounted to 0.

On to U15C U96C U102C G105A, for which the self-cleavage came out at 0.16.

Take C19A A50U A64U U115C A117G: the self-cleavage was found to be 0.87.

On to C16U U115C U134C, for which the self-cleavage turned out to be 1.36.

C17U G49A A78G A79G U115C: the self-cleavage worked out at 1.31.

In the case of C19U U62A U81C U100A U134C, the self-cleavage came out at 0.08.

For U15C U100G C131A, the self-cleavage came to 2.19.

As to C19U A31U A59G A140G, the self-cleavage was determined as 0.

As for U20A U46C A78G A117U, the self-cleavage was found to be 0.33.

Consider C19U U73A A141G, for which the self-cleavage worked out at 1.36.

As for C19U U39G A65G, the self-cleavage was 0.8.

Take C19A G72A A121G: the self-cleavage is 1.25.

For C18U C56U A142G, the self-cleavage worked out at 0.17.

As for C19U U108C A117U, the self-cleavage turned out to be 1.78.

With C17A A77G U104C U132G A136U, the self-cleavage was 1.67.

As for U20C G40A U52C, the self-cleavage came to 1.62.

As to C18U G53A A59G, the self-cleavage was found to be 0.05.

With U20A G33U A42U, the self-cleavage came out at 0.92.

Consider U20A U52G A57G A78U U91A U104C, for which the self-cleavage worked out at 1.06.

For the variant C18A A31C U87A U96A, the self-cleavage stood at 0.15.

Consider U15G A59G A65U C90A U108C A129G, for which the self-cleavage was determined as 0.

On to U20C A50U U115C, for which the self-cleavage was 0.47.

For C16U A43G C51U, the self-cleavage is 1.35.

As to C19U U46C G54C A117C, the self-cleavage was 1.38.

Take U20C A22U A43G G74U U100C: the self-cleavage turned out to be 0.

Consider C19U U100C A140G, for which the self-cleavage came out at 0.63.

U20A A77U U112C U119C: the self-cleavage is 0.71.

For C16A U39C A50G U62A U108C U132C U143C, the self-cleavage came out at 0.

As to U20C G34A C103U, the self-cleavage stood at 1.07.

Take U20C A65G U87C U143C C146U: the self-cleavage was found to be 0.

With C18A G60A U134A, the self-cleavage was determined as 0.05.

Turning to C19U A31U A42G U104A, the self-cleavage was 0.73.

Take U20A A22G U52C A129U: the self-cleavage stood at 1.17.

Turning to U20A C28U A77G, the self-cleavage was determined as 1.43.

For U20C A65G U91C C98A, the self-cleavage came to 0.12.

With U20C A30G U39A G75A A78C, the self-cleavage is 0.98.

Take C17U U87A A107U: the self-cleavage was 0.14.

Consider C18A U85A G105A A142G, for which the self-cleavage was found to be 0.13.

For the variant C18U G33U U134C, the self-cleavage turned out to be 0.79.

U15G A67G A129G U134C: the self-cleavage was found to be 0.

Consider C16U C63U U85C U143C, for which the self-cleavage was found to be 0.

On to U15C U85A U102C A124U C133U A136G, for which the self-cleavage was determined as 0.24.

Turning to C18U U20C A138G, the self-cleavage is 0.66.

As for U20C C76G A121U, the self-cleavage worked out at 2.27.

For the variant C16U U46C U47C U130C, the self-cleavage was determined as 0.31.

U20C A24U A64U A138C: the self-cleavage is 0.

U20A U26A U104A: the self-cleavage is 1.33.

Regarding C17U C18A U73C, the self-cleavage came to 0.84.

Turning to U15C U85A A141U, the self-cleavage came out at 0.03.

Turning to U15G A69G C103A U130C U143A, the self-cleavage was found to be 0.27.

As for U15G A129G C146U, the self-cleavage was 1.26.

For the variant C16G A138G U143C, the self-cleavage turned out to be 1.33.

Take U20A A57G U104A: the self-cleavage was 0.36.

Regarding C19U U115A A129U, the self-cleavage is 1.12.

Regarding C19A A43G A77G A121G, the self-cleavage was 1.71.

For C18U G27A A42G C51U, the self-cleavage came out at 1.28.

Consider U20C A22G U132C U143A, for which the self-cleavage was 2.24.

On to C19U A22G U52A U73A U132C, for which the self-cleavage came out at 0.93.

As to U15G A65G A69U U102A U130C, the self-cleavage came to 0.

For the variant U20C G34U A69U A79G G105A A121G U130C, the self-cleavage was 0.08.

Turning to U15G C68U U85C U134A, the self-cleavage was 0.08.

Regarding U15G A24G A57U A121G, the self-cleavage was 1.53.

In the case of U15C U108C U143C, the self-cleavage was determined as 1.76.

As for C16U A94U C116U, the self-cleavage was determined as 0.21.

In the case of C19A A57U G126U A138G, the self-cleavage turned out to be 0.1.

Regarding U20C G33C A64U U87C U132C, the self-cleavage was 0.

C19U C71U U91C U115C A117G: the self-cleavage was determined as 0.19.

Take U20C A117C U119C: the self-cleavage worked out at 0.92.

Take C18U C28G U104C: the self-cleavage was 1.53.

For the variant C16U A31G G88U U104C, the self-cleavage is 0.21.

In the case of C17U U109C U112C A136G, the self-cleavage amounted to 1.35.

Take C16U A50G U85A: the self-cleavage was 0.07.

Turning to U20A U62A U143C, the self-cleavage came to 0.09.

For the variant C19A C37G U100C, the self-cleavage is 0.96.

Consider U20A U26A U47C U87G A140G, for which the self-cleavage stood at 0.14.

As to U20C A59G A65C U73A A94G, the self-cleavage is 0.

U20A U39A U45G A59G: the self-cleavage was 0.

Consider C19U A65G A69U A107U, for which the self-cleavage turned out to be 0.08.

With U20C A94G A107G, the self-cleavage was 0.

As to U20A A57G C95A, the self-cleavage turned out to be 0.12.

With U20A A57G G105U A138G, the self-cleavage was 0.79.

Turning to U15C U102C U132C, the self-cleavage worked out at 1.01.

C18U U47A U130C: the self-cleavage came to 1.09.

As for U20C A22G A142G, the self-cleavage is 0.6.

As to U20A U109C U132C, the self-cleavage was found to be 1.66.

Take U20C A78G U87A: the self-cleavage is 0.07.

In the case of U20C G53A A57G A77G, the self-cleavage was found to be 1.59.

As for U20A G55A A65G, the self-cleavage was found to be 0.04.

Regarding U20C A57U U87C, the self-cleavage is 0.06.

With C18U A42G U47G U115C A129U, the self-cleavage was 2.04.

As to U20A G27A U104C A124G, the self-cleavage amounted to 1.11.

Consider U20C A43U G72U U132C, for which the self-cleavage is 0.97.

Consider U20A A138G A141U, for which the self-cleavage came out at 1.51.

Consider U15C U134A A140G, for which the self-cleavage amounted to 0.64.

Regarding U20A A22G U102A A140C A142G U143A, the self-cleavage was 0.34.

As to C17U U143A G144A, the self-cleavage worked out at 1.61.

C17U U20A U132A: the self-cleavage worked out at 0.9.

In the case of C17G A57U U73A G86A, the self-cleavage was determined as 0.

As to C19U U26A U62C U104A A141G U143C, the self-cleavage was found to be 0.05.

Take U20A U45A U143C: the self-cleavage worked out at 0.3.

Consider C19U U26C A79G U132C, for which the self-cleavage worked out at 2.63.

In the case of C16A A67U G75U U85C A107G, the self-cleavage worked out at 0.03.

Turning to U20A A22G U26A, the self-cleavage was 0.71.

As for U20A U73G A77G U109C, the self-cleavage was determined as 0.4.

For U20A A42G A129G, the self-cleavage amounted to 1.6.

Turning to C16A U85A G122U, the self-cleavage was found to be 0.06.

Regarding U20A U26C G127C G135U A142G, the self-cleavage was determined as 1.4.

On to U20C G21A U104A A136U, for which the self-cleavage amounted to 0.57.

Regarding U20A C37G G72U A78G U87A U91A, the self-cleavage was determined as 0.06.

As to C17U U47A U87C U100C, the self-cleavage was 0.56.

In the case of U15C U96C U143G, the self-cleavage was determined as 0.

On to C19U C76U U119C, for which the self-cleavage was 2.38.

As to C19G U29A G144A, the self-cleavage was found to be 1.08.

With C19U A22G U96C A138G, the self-cleavage amounted to 0.

Regarding U20A C51U A79G U102C U132C, the self-cleavage is 0.77.

For U15C U104A A124G, the self-cleavage was 0.56.

On to C17U A43G G48C C63U A64G U112C A142C, for which the self-cleavage worked out at 0.33.

As for U20C C37G U45C, the self-cleavage is 1.39.

As to U20A A50G A67G U132C, the self-cleavage was determined as 0.81.

Turning to C19U C37U A64G, the self-cleavage worked out at 0.13.

Take U15C U96G G126A: the self-cleavage was 0.12.

On to U20A A124U A140G A142G, for which the self-cleavage was 1.05.

As for U20C A57G G72C A78G A107U, the self-cleavage came to 0.56.

On to U15G U62C A124G, for which the self-cleavage was found to be 0.

Values taken from the RNAGym collection of RNA variant scans (doi:10.7554/elife.90254).
